{"source": "PubChem BioAssay AID1721", "about": "(National Center for Advancing Translational Sciences (NCATS), 2009)", "note": "Screen size: about 290,000 compounds; about 1,100 (0.38%) were called active. The shares of active, inactive and inconclusive entries below differ from those in the screen. The call rests on the fitted dose curve; in most records, active means well fitted inhibition curve with a large enough effect; inconclusive means small, poorly fitted or top-dose-only effect, or another doubt; inactive means no such curve, though single readings can be large or run the other way. Where the call is inconclusive, the potency comes from a doubtful curve fit. On the % scale 0 is the no-effect control and ±100 the full control effect; potency means the concentration at half of the fitted maximal effect; tags describe the fitted curve by direction and shape.", "data": [{"molecular_target": "Pyruvate kinase (Leishmania mexicana) (UniProt Q27686)", "sequence (Q27686 whole entry, looked up)": "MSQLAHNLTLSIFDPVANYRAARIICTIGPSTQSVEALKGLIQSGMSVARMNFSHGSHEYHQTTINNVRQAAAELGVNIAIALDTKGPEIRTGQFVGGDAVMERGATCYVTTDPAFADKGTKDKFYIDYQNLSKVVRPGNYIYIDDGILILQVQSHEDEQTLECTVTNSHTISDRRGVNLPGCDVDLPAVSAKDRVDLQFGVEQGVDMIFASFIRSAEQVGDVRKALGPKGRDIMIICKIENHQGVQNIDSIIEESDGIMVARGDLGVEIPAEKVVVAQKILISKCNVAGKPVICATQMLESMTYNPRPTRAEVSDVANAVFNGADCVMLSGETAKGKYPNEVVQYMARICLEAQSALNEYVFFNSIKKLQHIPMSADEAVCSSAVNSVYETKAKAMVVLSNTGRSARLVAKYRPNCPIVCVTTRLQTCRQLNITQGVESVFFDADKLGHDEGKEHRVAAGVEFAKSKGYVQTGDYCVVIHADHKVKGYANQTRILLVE", "assay": "qHTS Assay for Inhibitors of Leishmania Mexicana Pyruvate Kinase (LmPK)", "details": "purified LmPK, Kinase-Glo ATP luminescence, 1 h; activity change, negative = inhibition: at 57.5 µM (top of the series) unless noted", "in_short": "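0.1 nM LmPK, 0.5 mM PEP, 0.1 mM ADP; 50 mM imidazole pH 7.2, 7 mM MgCl2, 50 mM KCl; 1 h RT. Kinase-Glo luminescence readout, normalized to no-enzyme (full inhibition) and uninhibited wells.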", "values": [{"smiles": "O=C1C(C=Nc2ccc(F)cc2)=C(O)c2ccccc21", "Potency": "inconclusive: 3.16 µM [falling, partial curve]"}, {"smiles": "Cc1cccc(NC(=O)c2cccs2)n1", "Potency": "inconclusive: 28.2 µM [falling, single point]"}, {"smiles": "Cc1ccc(-n2c(CNc3ccc(C)c(Cl)c3)n[nH]c2=S)cc1", "Potency": "inconclusive: 17.8 µM [falling, partial curve]"}, {"smiles": "CC1CC(C)CN(C(=O)c2nn(C)c3c2CSc2ccccc2-3)C1", "note": "(stereo not drawn)", "activity change, negative = inhibition": "inactive: 0.4%"}, {"smiles": "O=C(O/N=C1/CCCc2occc21)c1ccc(F)cc1", "Potency": "inconclusive: 3.98 µM [falling, full curve]"}, {"smiles": "COc1ccc(C(=O)COC(=O)c2ccco2)cc1", "Potency": "inconclusive: 28.2 µM [falling, single point]"}, {"smiles": "Nc1ccccc1-[n+]1c(-c2ccccc2)cc(-c2ccccc2)cc1-c1ccccc1", "activity change, negative = inhibition": "inactive: 0.56%"}, {"smiles": "O=C(/C=C/c1ccc2c(c1)OCO2)c1ccc(F)cc1", "Potency": "inconclusive: 31.6 µM [falling, single point]"}, {"smiles": "O=[N+]([O-])c1ccc(/C=C/c2ccc3ccccc3n2)cc1", "Potency": "inconclusive: 20 µM [falling, single point]"}, {"smiles": "CCOC(=O)C1CCN(CCC(=O)Nc2ccc(F)cc2)CC1", "activity change, negative = inhibition": "inactive: 0.0613%"}, {"smiles": "COc1ccc(N2C(=O)/C(=C/N(C)C)NC2=S)cc1", "Potency": "inconclusive: 15.8 µM [falling, partial curve]"}, {"smiles": "Cc1cccc(NC(=O)c2cc(-c3ccco3)nc3ccccc23)n1", "activity change, negative = inhibition": "inactive: 0.854%"}, {"smiles": "COc1ccc(-c2nnc(NC(=O)c3ccco3)s2)cc1", "activity change, negative = inhibition": "inactive: -9.64%"}, {"smiles": "Oc1ccc(/C=C/c2cc(O)cc(O)c2)cc1", "Potency": "inconclusive: 17.8 µM [falling, single point]"}, {"smiles": "O=c1cc(CSc2ccccc2)nc(-c2ccccc2)[nH]1", "activity change, negative = inhibition": "inactive: 3.49%"}, {"smiles": "CCCOC(=O)c1ccc(NC(=O)C(CC)CC)cc1", "activity change, negative = inhibition": "inactive: 1.05%"}, {"smiles": "COc1cccc2c(=S)c(CCC(C)=O)c(C)[nH]c12", "Potency": "inconclusive: 5.01 µM [falling, partial curve]"}, {"smiles": "Cc1[nH]n(-c2ccc(Cl)cc2)c(=O)c1/C=N/c1nnc(-c2ccccc2)s1", "Potency": "inconclusive: 10 µM [falling, partial curve]"}, {"smiles": "O=C(Nc1nc2ccccc2[nH]1)c1ccc(OC(F)F)cc1", "Potency": "inconclusive: 35.5 µM [falling, single point]"}, {"smiles": "COc1cccc(NC(=O)CN(C)C(C)C(=O)Nc2cc([N+](=O)[O-])ccc2Cl)c1", "note": "(stereo not drawn)", "activity change, negative = inhibition": "inactive: -6.69%"}, {"smiles": "COc1ccc(/C=N/Nc2ccccn2)cc1O", "Potency": "inconclusive: 22.4 µM [falling, single point]"}, {"smiles": "Oc1c(C=Nc2cccc3cccnc23)sc2ccccc12", "Potency": "inconclusive: 17.8 µM [falling, single point]"}, {"smiles": "Cc1ccc([N+](=O)[O-])c(-c2n[nH]c(=S)n2-c2cccc(Cl)c2)c1", "Potency": "active: 17.8 µM"}, {"smiles": "CCCOc1ccc(C(O)(CCC)CCN2CCCCC2)cc1", "note": "(stereo not drawn)", "activity change, negative = inhibition": "inactive: 0.862%"}, {"smiles": "Cn1c(CNc2ccc(F)cc2)nc2ccccc21", "Potency": "inconclusive: 31.6 µM [falling, partial curve]"}, {"smiles": "CN(C)c1ccc(-c2nc3ccccc3c(=O)[nH]2)cc1", "Potency": "inconclusive: 7.08 µM [falling, partial curve]"}, {"smiles": "O=C(Nc1cc2ccccc2oc1=O)c1ccccc1", "Potency": "active: 4.47 µM"}, {"smiles": "Cc1cccc(-n2c(-c3ccncc3)n[nH]c2=S)c1", "Potency": "active: 14.1 µM"}, {"smiles": "O=C(N/N=C/c1c(O)n(Cc2ccco2)c(=O)[nH]c1=O)c1ccccc1", "activity change, negative = inhibition": "inactive: 15.6%"}, {"smiles": "Cc1ccc2nc(-c3ccccc3)cn2c1", "Potency": "active: 7.08 µM"}, {"smiles": "O=C(NCC1CCCO1)c1cccc(-n2cnnn2)c1", "note": "(stereo not drawn)", "activity change, negative = inhibition": "inconclusive: -37.5% [at 0.00368 µM]"}, {"smiles": "COC(=O)c1ccc(-c2nc3ccccc3[nH]2)cc1", "Potency": "inconclusive: 14.1 µM [falling, partial curve]"}, {"smiles": "CC(=O)c1ccc(/C=C/c2nc3ccccc3n2C)o1", "Potency": "inconclusive: 28.2 µM [falling, single point]"}, {"smiles": "CCOC(=O)C1CC(c2ccc(Cl)cc2)=NNC1=O", "note": "(stereo not drawn)", "activity change, negative = inhibition": "inactive: -4.4%"}, {"smiles": "CC(=O)Nc1ccc(-c2cc(N)n(-c3ccccc3)n2)cc1", "Potency": "active: 15.8 µM"}, {"smiles": "CC(=O)N1CC(C)Sc2ccc(S(=O)(=O)NCc3ccc(F)cc3)cc21", "note": "(stereo not drawn)", "activity change, negative = inhibition": "inactive: -0.303%"}, {"smiles": "COc1cc(-c2ccc(Nc3ccccc3C(=O)O)c(OC)c2)ccc1Nc1ccccc1C(=O)O", "activity change, negative = inhibition": "inactive: -1.85%"}, {"smiles": "COc1ccc(/C=C/C(=O)Nc2ccccc2C(=O)O)cc1", "Potency": "inconclusive: 20 µM [falling, single point]"}, {"smiles": "CCn1c(CNc2nc(-c3ccccc3)cs2)nnc1SCC(=O)NCc1ccco1", "activity change, negative = inhibition": "inactive: 3.25%"}, {"smiles": "NC(=O)CSc1nc2scc(-c3ccco3)c2c(=O)n1-c1ccccc1", "Potency": "inconclusive: 22.4 µM [falling, partial curve]"}, {"smiles": "Cc1ccc(C(=O)NCCn2c(N)c(C#N)c3nc4ccccc4nc32)cc1", "activity change, negative = inhibition": "inactive: 0.776%"}, {"smiles": "O=C1C=CC(=O)N1N(c1ccccc1)c1ccccc1", "Potency": "inconclusive: 15.8 µM [falling, partial curve]"}, {"smiles": "COc1ccc(-c2nc3ccccn3c2Cl)cc1", "Potency": "inconclusive: 14.1 µM [falling, partial curve]"}, {"smiles": "Nn1cc(-c2ccccc2)nc1SCC(=O)Nc1ccc2c(c1)OCO2", "activity change, negative = inhibition": "inactive: 2.24%"}, {"smiles": "C[C@H]([C@H](O)c1ccccc1)N(C)C(=O)CN", "activity change, negative = inhibition": "inactive: -0.561%"}, {"smiles": "Cn1c(=O)[nH]c2nnc(-c3ccc(Cl)c(Cl)c3)nc2c1=O", "Potency": "inconclusive: 22.4 µM [falling, partial curve]"}, {"smiles": "C=CCn1c(-c2cc3cccc(OC)c3o2)n[nH]c1=S", "Potency": "inconclusive: 25.1 µM [falling, partial curve]"}, {"smiles": "Cn1c(=NC(=O)c2ccco2)sc2ccccc21", "Potency": "inconclusive: 11.2 µM [falling, partial curve]"}, {"smiles": "CCCCCC1CC(CC(=O)O)C(=O)O1", "note": "(stereo not drawn)", "activity change, negative = inhibition": "inactive: 2.65%"}, {"smiles": "S=c1[nH]nc(CCc2nc3ccccc3[nH]2)n1-c1cccc(Cl)c1", "Potency": "active: 10 µM"}, {"smiles": "COC(=O)c1cc2sc(Cl)cc2n1CC(=O)N1CCCc2ccccc21", "activity change, negative = inhibition": "inactive: 6.88%"}, {"smiles": "CCN1C(=O)/C(=C/c2ccc(N(CC)CC)cc2OC)C(=O)NC1=S", "Potency": "inconclusive: 25.1 µM [falling, partial curve]"}, {"smiles": "COC(=O)[C@@H]1C[C@@]2(O)[C@@H](O)[C@@H](O)[C@@H](O)C[C@H]2N1Cc1ccc(Cl)cc1", "activity change, negative = inhibition": "inactive: -9.7%"}]}]}
